PubChem BioAssay AID624296 (National Center for Advancing Translational Sciences (NCATS), 2012)
In all, about 350,000 compounds went through this assay and about 9,900 (2.8%) were called active. Inconclusive means that the source gave no clear call. Such entries were picked first, then a sample of the others. Calls come from the whole dose curve; as a rule, active = well fitted activation curve with a large enough effect; inconclusive = small, poorly fitted or top-dose-only effect; inactive = no such curve, though single readings can be large or run the other way. Potencies of inconclusive entries are left out as doubtful fits.

assay: A quantitative high throughput screen for small molecules that induce DNA re-replication in MCF 10a normal breast cells.; note: nearly all actives have a fitted effect of over 50% in size; for activity, positive = re-replication: % of control where 0% means no effect; conditions: MCF 10A DNA re-replication, Hoechst nuclear intensity, 48 h; activity, positive = re-replication: at 46.1 µM (top of the series)
Potency is the fitted concentration of half-maximal effect; tags give direction and shape of the fitted curve.

For `Cc1ccc(-c2nc3sc(C(N)=O)c(N)c3c3c2CCCC3)cc1`, which Potency is on record?
The Potency was active: 5.17 µM.

With `CC(=O)c1cc(F)c(N2CCOCC2)cc1C` as the compound, how does the “activity, positive = re-replication” value read?
The value was inactive: -1.82%.

For `C[C@]12c3[nH]c4cc(-c5ccco5)ccc4c3CCN1C(=O)[C@@H](CC(=O)NCc1ccco1)C[C@@H]2C(=O)N1CCCCC1`, which Potency is on record?
The Potency was inconclusive [activator, partial curve].

With `COCc1cc(C)nc(Nc2ccccc2C)c1C#N` as the compound, how does the Potency read?
Its Potency is inconclusive [activator, single point].

For `COc1ccc(S(=O)(=O)NCc2cc(=O)n(C)c(=O)n2C)cc1F`, which Potency is on record?
Its Potency is inconclusive [activator, single point].

With `Cc1nc(Sc2ccc(Br)cc2)c(C#N)c(C)c1[N+](=O)[O-]` as the compound, how does the Potency read?
Its Potency is active: 20.6 µM.

For `Cc1ccccc1N(CC(=O)N/N=C/c1ccc(Cl)cc1)C(=O)c1ccccc1`, which Potency is on record?
Its Potency is active: 25.9 µM.

For `Cc1occc(=O)c1OCc1ccccc1`, which “activity, positive = re-replication” value is on record?
The value was inactive: 0.628%.

Which “activity, positive = re-replication” value does the source give for `N/C(=N\NC(=O)c1ccccc1Cl)c1cc2ccccc2oc1=O` here?
Its value is inactive: -2.73%.

For `COc1cc(NC(=O)c2ccc(S(=O)(=O)N(C)C)cc2)cc(OC)c1OC`, which “activity, positive = re-replication” value is on record?
The value was inactive: -6.41%.

Which Potency does the source give for `CC(=O)c1ccc(S(=O)(=O)Nc2cc3c(cc2C(C)=O)OCO3)cc1` here?
The Potency was inconclusive [activator, single point].

For `CCc1nc(Nc2ccc3c(c2)OCCO3)c2oc3ccccc3c2n1`, which Potency is on record?
Its Potency is inconclusive [activator, single point].

Which “activity, positive = re-replication” value does the source give for `O=C(NCCc1ccccc1)c1ccc2c(c1)S(=O)(=O)N=C1CCCCCN12` here?
The value was inactive: 4.2%.

For `CN1/C(=C\C(=O)C[n+]2ccc3ccccc3c2)C(C)(C)c2ccccc21`, which Potency is on record?
The Potency was inconclusive [activator, partial curve, poor fit].

With `Cc1cc(C(=O)N/N=C2\CCCC(=O)C2)c2ccccc2n1` as the compound, how does the “activity, positive = re-replication” value read?
Its value is inactive: -5.2%.

With `COCCn1c(C)cc(C2=NNC(=Nc3ccc(OC)cc3)SC2)c1C` as the compound, how does the Potency read?
Its Potency is inconclusive [activator, full curve, poor fit].

For `CO[C@H]1C=CO[C@@]2(C)Oc3c(C)c(O)c4c(O)c(c(C=NN5CCN(C)CC5)c(O)c4c3C2=O)NC(=O)C(C)=CC=C[C@H](C)[C@H](O)[C@@H](C)[C@@H](O)[C@@H](C)[C@H](OC(C)=O)[C@@H]1C`, which Potency is on record?
The Potency was “inactive”.

For `CCN(CCO)Cc1csc2ccc(Cl)cc12`, which “activity, positive = re-replication” value is on record?
The value was inactive: 19.3%.

Which Potency does the source give for `CCN(C(=O)COC(=O)/C=C/c1cccc(Cl)c1)c1c(N)n(Cc2ccccc2)c(=O)[nH]c1=O` here?
Its Potency is inconclusive [activator, single point].

For `O=C(c1ccco1)N1CCN(S(=O)(=O)c2c(Cl)cccc2Cl)CC1`, which “activity, positive = re-replication” value is on record?
Its value is inactive: 4.28%.

Which Potency does the source give for `COc1cc(C)c(Cl)c(C)c1S(=O)(=O)NC1CC(C)(C)NC(C)(C)C1` here?
The Potency was inconclusive [activator, single point].

Which Potency does the source give for `CC(=O)Nc1nc2ccc(-c3nc4ccccc4o3)cc2s1` here?
The Potency was inconclusive [activator, full curve, poor fit].

For `O=S(=O)(CCSc1nc2ccccc2s1)c1nc2ccccc2s1`, which Potency is on record?
Its Potency is inconclusive [activator, full curve, poor fit].

Which Potency does the source give for `Nc1nc(Nc2cccc(F)c2)nc(N2CCOCC2)c1[N+](=O)[O-]` here?
The Potency was inconclusive [activator, single point].

For `O=C(NN1C(=O)/C(=C/c2ccc(O)cc2)SC1=S)c1cccc(O)c1`, which “activity, positive = re-replication” value is on record?
Its value is inactive: -5.74%.

With `COc1ccc(Cl)cc1NC(=O)Nc1cn(C)nc1C` as the compound, how does the Potency read?
The Potency was inconclusive [activator, single point].

For `N#Cc1c(N)[nH]c(=S)c(C#N)c1-c1ccccc1`, which Potency is on record?
The Potency was inconclusive [activator, partial curve, poor fit].

For `COC(=O)c1ccc(NC(=O)c2ccc(OC(C)=O)c(OC)c2)cc1`, which “activity, positive = re-replication” value is on record?
The value was inactive: 0.332%.

For `CCn1cc(C(=O)NCc2ccco2)c(=O)c2cc(F)c(N3CCN(C(=O)c4ccco4)CC3)cc21`, which Potency is on record?
Its Potency is active: 13 µM.

For `CCCCC(=O)NC(c1cccc([N+](=O)[O-])c1)c1ccc2cccnc2c1O` (configuration not stated), which Potency is on record?
Its Potency is inconclusive [activator, single point].

With `Cc1cc(C2=NNC(=NC3CC3)SC2)c(C)n1-c1c(C)n(C)n(-c2ccccc2)c1=O` as the compound, how does the Potency read?
Its Potency is “inactive”.

With `COc1ccc(NC(=O)N(C2CCCCC2)C(C)c2ccco2)c(OC)c1` (configuration not stated) as the compound, how does the Potency read?
The Potency was inconclusive [activator, partial curve, poor fit].

For `CCc1nnc(NC(=O)CSc2nc(C)c3c(c2C#N)CCCC3)s1`, which Potency is on record?
The Potency was inconclusive [activator, full curve, poor fit].

For `COc1ccccc1C(N)=S`, which “activity, positive = re-replication” value is on record?
The value was inactive: -1.91%.

With `Cc1ccccc1-n1c(C)cc(/C=C2\NC(=O)NC2=O)c1C` as the compound, how does the Potency read?
The Potency was active: 25.9 µM.

With `CCN(CC)CCNC(=S)Nc1ccc2nc(N3CCCC3)cc(C)c2c1` as the compound, how does the Potency read?
The Potency was inconclusive [activator, partial curve].

For `CCc1nnc(NC(=O)C2=CCN(S(=O)(=O)c3ccccc3)CC2)s1`, which Potency is on record?
The Potency was inconclusive [activator, single point].

With `COc1ccc(N2C(=O)CC(C#N)=C2N)cc1` as the compound, how does the “activity, positive = re-replication” value read?
Its value is inactive: -3.35%.

Which Potency does the source give for `O=C(NCC1CC1)C1(C(F)(F)F)CC(CCc2ccccc2)CCCO1` (configuration not stated) here?
The Potency was inconclusive [activator, partial curve, poor fit].

Which “activity, positive = re-replication” value does the source give for `c1ccc2oc(NC3=NCN(CC4CCCO4)CN3)nc2c1` (configuration not stated) here?
Its value is inactive: -1.02%.

With `Cc1ccc(NC(=O)COc2coc(CN3CCN(c4ccccc4)CC3)cc2=O)cc1` as the compound, how does the “activity, positive = re-replication” value read?
Its value is inactive: 6.86%.

Which Potency does the source give for `COc1ccc(-c2nn(-c3ccccc3)cc2/C=C/C(=O)NCCCn2ccnc2)cc1OC` here?
Its Potency is inconclusive [activator, partial curve, poor fit].

For `COC(=O)c1ccc(COC(=O)c2ccc(CO)cc2)o1`, which “activity, positive = re-replication” value is on record?
Its value is inactive: 0.184%.

With `COc1cc(/C=C2/SC(=S)N(Cc3ccccc3)C2=O)cc(OC)c1O` as the compound, how does the Potency read?
The Potency was inconclusive [activator, single point].

With `CC(=O)C1CCC2C3CCC4=CC(=O)CCC4(C)C3(F)C(O)CC12C` (configuration not stated) as the compound, how does the “activity, positive = re-replication” value read?
The value was inactive: 16.9%.

With `COc1cccc(/C=C/C(=C2/C(=O)N(c3ccccc3)N=C2C)c2ccc(Br)cc2)c1OC` as the compound, how does the Potency read?
Its Potency is inconclusive [activator, partial curve, poor fit].

Which “activity, positive = re-replication” value does the source give for `COC(=O)c1nn(-c2ccc(OC)cc2)c(=O)cc1NN` here?
Its value is inactive: 10.4%.

With `CC(C)CC1(C)NC(=O)N(CC(=O)Nc2ccc3c(c2)CCC3)C1=O` (configuration not stated) as the compound, how does the Potency read?
Its Potency is inconclusive [activator, partial curve, poor fit].

With `CO/N=C(/C(=O)N[C@@H]1C(=O)N2C(C(=O)O)=C(COC(N)=O)CS[C@H]12)c1ccco1` as the compound, how does the Potency read?
The Potency was inconclusive [activator, partial curve, poor fit].

Which “activity, positive = re-replication” value does the source give for `Cc1ccccc1C(=O)N1CC(=O)Nc2ccc(F)cc2C1c1ccccc1` (configuration not stated) here?
The value was inactive: 14.5%.

Which Potency does the source give for `COc1ccc(S(=O)(=O)N2CCCc3ccccc32)cc1[N+](=O)[O-]` here?
Its Potency is active: 4.11 µM.

With `Cc1nnc(NC(=O)CSc2nnc(C)n2Cc2ccccc2)s1` as the compound, how does the “activity, positive = re-replication” value read?
Its value is inactive: -0.191%.

For `COc1ccc2[nH]c(=O)c(CN(Cc3ccco3)C(c3nnnn3Cc3ccccc3)C(C)C)cc2c1` (configuration not stated), which Potency is on record?
The Potency was inconclusive [activator, partial curve, poor fit].

For `N#C/C(=N\Nc1ccc([N+](=O)[O-])cc1)C(N)=S`, which Potency is on record?
Its Potency is inconclusive [activator, single point].

Which “activity, positive = re-replication” value does the source give for `Cc1ccc(OCC(=O)Nc2ccc3c(c2)C(=O)N(CCC(=O)O)C3=O)cc1` here?
Its value is inactive: -0.391%.

Which “activity, positive = re-replication” value does the source give for `COC(=O)C(Cc1c[nH]c2ccccc12)NC(C)=O` (configuration not stated) here?
The value was inactive: -9.98%.

For `CC(C)(C)c1csc(Sc2ccc([N+](=O)[O-])cn2)n1`, which Potency is on record?
Its Potency is inconclusive [activator, partial curve, poor fit].

For `Cc1ccc(Sc2ncccc2N)cc1`, which Potency is on record?
The Potency was inconclusive [activator, partial curve, poor fit].

With `Cc1ccccc1S(=O)(=O)N1C[C@H]2CON(C)[C@H]2C[C@H]1c1cccc(-c2ccccc2)c1` as the compound, how does the Potency read?
The Potency was inconclusive [activator, partial curve, poor fit].

With `O=C(C1CCN(S(=O)(=O)N2CCOCC2)CC1)N1CCN(Cc2ccccc2)CC1` as the compound, how does the “activity, positive = re-replication” value read?
Its value is inactive: -6%.

Which Potency does the source give for `Clc1ccc2nsnc2c1NC1=NCCN1` here?
The Potency was inconclusive [activator, full curve, poor fit].

With `CNCCOc1ccc(Cl)c(Cl)c1` as the compound, how does the Potency read?
Its Potency is inconclusive [activator, full curve].

With `CCCc1[nH]nc2c1C(c1ccc(O)c(OC)c1)C(C#N)=C(N)O2` (configuration not stated) as the compound, how does the Potency read?
The Potency was inconclusive [activator, single point].

For `Cc1ccc(OCC(=O)c2c[nH]c3ccccc23)c([N+](=O)[O-])n1`, which Potency is on record?
The Potency was inconclusive [activator, single point].

For `CCOC(=O)c1c(C)[nH]c(C(=O)COC(=O)c2cc(C)oc2C)c1C`, which Potency is on record?
The Potency was inconclusive [activator, single point].

With `O=C1/C(=C\c2ccc(O)cc2)SC(=S)N1c1cccnc1` as the compound, how does the “activity, positive = re-replication” value read?
Its value is inactive: -8.92%.

For `Cc1ccc(N/C=C/C(=O)c2ccc(C)cc2)cc1`, which “activity, positive = re-replication” value is on record?
The value was inactive: 8.69%.

Which “activity, positive = re-replication” value does the source give for `O=C(C[n+]1cc(-c2ccccc2)n2c1CCC2)OCc1ccccc1` here?
The value was inactive: -9.69%.

For `FC(F)(F)c1ccnc(NCc2ccco2)n1`, which Potency is on record?
The Potency was inconclusive [activator, single point].

For `O=C(COc1cccc(NC(=O)c2cccc([N+](=O)[O-])c2)c1)c1ccc(F)cc1`, which Potency is on record?
Its Potency is inconclusive [activator, single point].

With `CN(C(=S)NC(=O)c1ccccc1)c1c(N)n(Cc2ccccc2)c(=O)[nH]c1=O` as the compound, how does the “activity, positive = re-replication” value read?
The value was inactive: -0.703%.

For `Cc1ccccc1Nc1cc2ccccc2c(=O)[nH]1`, which Potency is on record?
The Potency was inconclusive [activator, single point].
